The results in this text go back to PubChem BioAssay AID1508624 (National Center for Advancing Translational Sciences (NCATS), 2021).

Screen size: about 48,000 compounds; about 120 (0.25%) were called active. Not shown: some 4% with an inconclusive outcome. Calls follow the shape of the dose curve; as a rule, active = well fitted activation curve with a large enough effect; inconclusive = small, poorly fitted or top-dose-only effect, or another doubt; inactive = no such curve, though single readings can be large or run the other way. The list shows a part of the results.

The assay in a line: Primary qHTS for Identification of Small Molecule Activators of Huntingtin-Antisense Promoter Activity. Also: nearly all actives have a fitted effect of over 55% in size. Conditions: HEK293 HTT-AS promoter firefly luciferase reporter, 24 h; series mostly up to 57.5 µM; activity change, positive = activation: at the top concentration. In a few lines:
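Luminescence was read after Dual-Glo reagent and a 10 min room-temperature incubation. Values were normalized to vehicle (0% activity) and zero RLU (-100% activity). Reporter HEK293 cells had been exposed to compounds (up to 57.5 uM final) for 24 h.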
For the molecule `COc1ccc(Cn2c(=O)n(-c3ccc(C)cc3)c(=O)c3c2c2cc(C)ccc2n3C)cc1`, the “activity change, positive = activation” value was inactive: -5.48%.

For `Cc1ccc2nc(-c3ccc(Cl)c(NC(=O)COc4ccc([N+](=O)[O-])cc4)c3)oc2c1`, the “activity change, positive = activation” value is inactive: 0.626%.

For the molecule `CCOC(=O)c1c(C)oc2ccc(N(C(=O)c3ccncc3)S(=O)(=O)c3ccc(F)cc3C)cc12`, the “activity change, positive = activation” value is inactive: -47.6%.

For `O=C(Cn1c(=O)n(-c2ccccc2)c(=O)c2c3c(sc21)CCC3)c1ccc(Br)cc1`, the “activity change, positive = activation” value was inactive: -7.36%.

With `CC(C)CCNC(=O)CCCn1c(=O)c2cccn2c2ccccc21`, the “activity change, positive = activation” value is inactive: -2.97%.

On to `Cc1cccc(CS(=O)(=O)Cc2ccc(C(=O)NCc3ccc(F)cc3)o2)c1`, for which the “activity change, positive = activation” value is inactive: -29.3%.

On to `COc1cccc(NC(=O)c2cnc(SCC(=O)N3CCCc4ccccc43)n(C)c2=O)c1`, for which the “activity change, positive = activation” value was inactive: -8.87%.

On to `CCN(C(=O)c1cc2c(=O)oc3ccccc3c2s1)c1ccccc1F`, for which the “activity change, positive = activation” value was inactive: -3.89%.

Consider `Cc1noc(-c2ccc(-c3noc(-c4ccc(Cl)cc4)n3)cc2)n1`, for which the “activity change, positive = activation” value was inactive: 8.26%.

`CC(=C(CCOC(=O)C(C)C)SSC(CCOC(=O)C(C)C)=C(C)N(C=O)Cc1cnc(C)nc1N)N(C=O)Cc1cnc(C)nc1N`: the “activity change, positive = activation” value was inactive: 1.19%.

As for `COCCNC(=O)CCn1nc(-c2ccc(Cl)cc2)c2ccccc2c1=O`, the activity change, positive = activation is inactive: -4.44% [at 11.5 µM, percent change from vehicle, -100% = no light].

In the case of `CC(=O)N1CCCc2cc(S(=O)(=O)Nc3ccc(Cl)cc3F)ccc21`, the “activity change, positive = activation” value is inactive: -26.5%.

In the case of `CC1CCN(C(c2ccc(F)cc2)c2sc3nc(-c4ccco4)nn3c2O)CC1` (centres undefined), the “activity change, positive = activation” value is inactive: -10.8%.

With `COc1ccc(CC(=O)N2CCc3c([nH]c4ccccc34)C2c2ccc(SC)cc2)cc1` (centres undefined), the “activity change, positive = activation” value was inactive: -29.3%.

As for `COc1ccc(C(=O)N2CCN(C(=O)COc3ccccc3)CC2)cc1OC`, the “activity change, positive = activation” value is inactive: 8.24%.

With `O=C(c1ccc2c(c1)N(Cc1ccccc1)C(=O)c1ccccc1S2(=O)=O)N1CCOCC1`, the “activity change, positive = activation” value is inactive: -8.84%.

As for `COc1ccc(NC(=O)C(NC(=O)/C=C\c2ccc3c(c2)OCO3)c2ccc(C)cc2)cc1` (centres undefined), the “activity change, positive = activation” value is inactive: 1.1%.

As to `CCc1ccc(-n2c(N3CCN(c4ccc(F)cc4)CC3)nc3ccccc3c2=O)cc1`, the “activity change, positive = activation” value is inactive: -29%.

As to `COc1ccc(C)cc1NC(=O)Cn1nc(N2CCN(c3ccccc3OC)CC2)ccc1=O`, the “activity change, positive = activation” value was inactive: -22.5%.

`COc1ccccc1Cc1nc2ccccc2nc1SCC(=O)NCc1ccc(C)cc1`: the “activity change, positive = activation” value is inactive: -8.14%.

With `COc1ccccc1CNC(=O)C(=O)NCC(c1cccnc1)N1CCN(c2ccccc2)CC1` (centres undefined), the “activity change, positive = activation” value was inactive: -33.5%.

As for `Cc1noc(C)c1S(=O)(=O)N(CC(=O)NCc1ccccc1)c1ccc(C(C)C)cc1`, the “activity change, positive = activation” value is inactive: -20%.

Turning to `O=C(COCc1cc(-c2ccco2)on1)Nc1cc(Cl)ccc1O`, the “activity change, positive = activation” value was inactive: -9.68%.

On to `COc1ccc(-c2nc(SCC(=O)NC3CCCC3)c(-c3ccc(F)cc3)[nH]2)cc1OC`, for which the “activity change, positive = activation” value is inactive: -17.1%.

For `COc1ccc(NC(=O)Cn2c(=O)c3cccn3c3ccccc32)cc1`, the “activity change, positive = activation” value is inactive: -13.2%.

Regarding `COc1ccc(S(=O)(=O)NCCc2sc(-c3cccnc3)nc2C)cc1`, the “activity change, positive = activation” value was inactive: -12.9%.

Regarding `O=C(NC1CC(=O)N(c2ccc(F)cc2)C1)c1ccc(S(=O)(=O)N2CCOCC2)cc1` (centres undefined), the “activity change, positive = activation” value was inactive: -13.6%.

Turning to `Cc1ccc(-n2ncc3c(Nc4ccc5c(c4)OCCO5)ncnc32)cc1Cl`, the “activity change, positive = activation” value is inactive: 0.495%.

In the case of `CCOCCCN1C(=O)CN(C2CCCCCC2)C(=O)C1c1ccc(OCC)c(OC)c1` (centres undefined), the “activity change, positive = activation” value was inactive: 10.4%.

With `COc1cc(OC)cc(C(=O)Nc2ccc3c(c2)CCCN3C(=O)c2cccs2)c1`, the “activity change, positive = activation” value is inactive: -25.7%.

`CCSc1nc(-c2ccccc2)nc2c1Cc1c(CO)cnc(C)c1O2`: the “activity change, positive = activation” value is inactive: 2.66%.

As to `CCOC(=O)C1CCN(C(=O)C2CCN(S(=O)(=O)c3c(C)noc3/C=C/c3ccc(C)cc3)CC2)CC1`, the “activity change, positive = activation” value was inactive: -39.2%.

`CCCCN(C)S(=O)(=O)c1ccc(C(=O)Nc2sc3c(c2C(=O)OCC)CCN(C(C)C)C3)cc1`: the “activity change, positive = activation” value is inactive: -24.7%.

Consider `CCOC(=O)c1[nH]c(C)c(CCC(=O)N2CCN(c3ccc(OC)cc3)CC2)c1C`, for which the “activity change, positive = activation” value is inactive: -15.1%.

As for `O=C(O)CCC(=O)N1CCc2cc(S(=O)(=O)NCc3ccc(F)cc3)ccc21`, the “activity change, positive = activation” value is inactive: 10.3%.

Take `COc1ccc(NC(=O)c2cccc3c(=O)c4c([nH]c23)CCCC4)cc1`: the “activity change, positive = activation” value was inactive: -18.1%.

`Cc1ccc(C(C)C)c(OCC(=O)Nc2ccc3c(c2)nc(CCNC(=O)c2ccco2)n3C)c1`: the “activity change, positive = activation” value is inactive: -9.35%.

As to `CCCC1=Nc2cc(C(=O)NCc3ccccc3)ccc2Sc2ccccc21`, the “activity change, positive = activation” value is inactive: -36.8%.

Consider `O=C1OC2(c3ccccc31)c1cc(Br)c(O)c(Br)c1Oc1c2cc(Br)c(O)c1Br`, for which the “activity change, positive = activation” value is inactive: -10.4%.

Turning to `CC/C(=C(\c1ccccc1)c1ccc(OCCN(C)C)cc1)c1ccccc1`, the “activity change, positive = activation” value was inactive: -29.1%.

Consider `O=C(Nc1cccc(Br)c1)c1cc(S(=O)(=O)N2CCCCC2)c[nH]1`, for which the “activity change, positive = activation” value was inactive: -5.52%.

On to `COc1ccc(-c2nc3n(n2)C(c2ccc(O)cc2)C(C(=O)Nc2cccnc2)=C(C)N3)cc1OC` (centres undefined), for which the “activity change, positive = activation” value was inactive: -9.42%.

As for `Cc1cc(S(=O)(=O)Nc2cc3c(cc2N2CCOCC2)n(C)c(=O)c(=O)n3C)ccc1F`, the “activity change, positive = activation” value was inactive: -13.5%.

As to `CCc1oc2ccccc2c1C(=O)c1cc(Br)c(O)c(Br)c1`, the “activity change, positive = activation” value is inactive: -43.3%.

`CCOc1ccc(CCNC(=O)NCc2noc3ccc(C)cc23)cc1`: the “activity change, positive = activation” value is inactive: -18.6%.

As for `CCOCCc1nn2c(=O)cc(COC(=O)c3ccc(NC(=O)c4cccs4)cc3)nc2s1`, the “activity change, positive = activation” value was inactive: -9.51%.

With `Cc1cccc(C(=O)N2CCc3cc(CNC(=O)c4ccco4)ccc32)c1`, the “activity change, positive = activation” value was inactive: -48.2%.

Take `CCCNC(=O)c1ccc(Cn2c(SCC(=O)NC(C)C)nc3ccccc3c2=O)cc1`: the “activity change, positive = activation” value is inactive: -8.51%.

In the case of `COc1ccccc1CNc1nccn(-c2ccc(F)cc2)c1=O`, the “activity change, positive = activation” value was inactive: 0.108%.

With `CCCn1c2ccccc2c2cnn(CC(=O)NCC3CCN(Cc4ccccc4C)CC3)c(=O)c21`, the “activity change, positive = activation” value is inactive: -25.9%.

As for `COC(=O)CN1C(=O)C(O)(c2c(C)[nH]c3ccccc23)c2ccccc21` (centres undefined), the “activity change, positive = activation” value was inactive: -15%.

On to `Cc1csc2nc(COc3ccc(NC(=O)c4ccccc4F)cc3)cc(=O)n12`, for which the “activity change, positive = activation” value was inactive: -17.6%.

Turning to `COc1ccc(C(=O)Nc2nc(-c3ccc(Br)cc3)ns2)cc1`, the “activity change, positive = activation” value is inactive: -23.9%.

For the molecule `Cc1nn(Cc2ccccc2Cl)c(C)c1CN(C)CC(O)COc1ccc(Cl)cc1` (centres undefined), the “activity change, positive = activation” value was inactive: -16.7%.

As for `Cc1ccc(N(CC(=O)Nc2ccc(F)cc2F)S(=O)(=O)c2cccs2)cc1`, the “activity change, positive = activation” value is inactive: -30.5%.

On to `CCC(=O)C1=C(c2ccccc2)N(C(=O)CC)n2c(nnc2-c2ccccc2)S1`, for which the “activity change, positive = activation” value was inactive: -12.3%.

On to `Cc1ccc(S(=O)(=O)NCCc2nnc3ccc(SCc4ccccc4F)nn23)cc1`, for which the “activity change, positive = activation” value is inactive: -18.6%.

For `O=C(COc1ccccc1F)Nc1nnc(SCc2cc(=O)n3ccccc3n2)s1`, the “activity change, positive = activation” value was inactive: -5.92%.

Take `CCOC(=O)c1cc2c(=O)n3ccccc3nc2n(CC2CCCO2)c1=NC(=O)c1cccc(C)c1` (centres undefined): the “activity change, positive = activation” value was inactive: 0%.
